Publication PMC4336329 (PLoS ONE, 2015)
Screen size: about 310,000 compounds; about 14,000 (4.5%) showed an effect of 50% or more. The effect is printed as a negative number. The list shows a part of the results. Where a SMILES comes first, the peptide text is derived from it.

What follows are compounds tested against human ether-à-go-go-related gene (hERG) potassium channel (human, UniProt Q12809) (assay: primary screen, population patch clamp on CHO cells stably expressing hERG).
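Also: peak tail current of the secondary pulse compared with the same well before compound.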

human ether-à-go-go-related gene (hERG) potassium channel, sequence (Q12809 whole entry, looked up): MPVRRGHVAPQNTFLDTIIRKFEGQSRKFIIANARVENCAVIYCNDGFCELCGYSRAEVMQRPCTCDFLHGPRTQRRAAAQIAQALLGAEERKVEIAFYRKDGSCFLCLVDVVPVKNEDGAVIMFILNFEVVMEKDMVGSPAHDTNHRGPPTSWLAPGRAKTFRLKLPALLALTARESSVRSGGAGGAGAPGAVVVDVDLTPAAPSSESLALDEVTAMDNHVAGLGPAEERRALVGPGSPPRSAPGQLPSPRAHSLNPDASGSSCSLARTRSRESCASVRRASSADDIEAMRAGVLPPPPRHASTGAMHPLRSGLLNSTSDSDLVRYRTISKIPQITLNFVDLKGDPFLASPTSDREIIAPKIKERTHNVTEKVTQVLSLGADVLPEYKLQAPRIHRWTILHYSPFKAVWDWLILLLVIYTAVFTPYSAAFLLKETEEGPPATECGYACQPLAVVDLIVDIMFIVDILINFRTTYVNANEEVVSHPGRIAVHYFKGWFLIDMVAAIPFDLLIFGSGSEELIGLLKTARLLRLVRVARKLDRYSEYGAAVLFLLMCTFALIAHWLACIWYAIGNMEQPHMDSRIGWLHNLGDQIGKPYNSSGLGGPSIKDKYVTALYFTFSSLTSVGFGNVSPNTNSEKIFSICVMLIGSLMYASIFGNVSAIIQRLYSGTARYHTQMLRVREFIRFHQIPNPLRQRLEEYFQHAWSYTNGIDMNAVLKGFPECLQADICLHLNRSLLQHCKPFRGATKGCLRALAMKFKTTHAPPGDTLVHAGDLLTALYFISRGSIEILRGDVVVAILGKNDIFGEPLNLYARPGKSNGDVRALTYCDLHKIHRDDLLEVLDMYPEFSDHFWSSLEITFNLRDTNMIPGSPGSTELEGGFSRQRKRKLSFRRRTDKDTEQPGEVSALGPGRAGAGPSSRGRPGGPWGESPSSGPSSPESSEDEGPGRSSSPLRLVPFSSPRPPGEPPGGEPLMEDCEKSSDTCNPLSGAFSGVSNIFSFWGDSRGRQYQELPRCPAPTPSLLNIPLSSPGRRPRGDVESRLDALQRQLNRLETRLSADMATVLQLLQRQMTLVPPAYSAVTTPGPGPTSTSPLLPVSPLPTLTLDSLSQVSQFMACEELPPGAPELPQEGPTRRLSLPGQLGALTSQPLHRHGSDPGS

Compound | hERG current change (%, negative = inhibition) at 10uM
CCn1cc(C(=O)NCCCOC)c(=O)c2cc(S(=O)(=O)N(C)C3CCCCC3)ccc21 | -23%
COC(=O)c1cc(S(=O)(=O)NCCc2ccc(Cl)cc2)c[nH]1 | -3.4%
C(=N\N1CCN(Cc2cccc3ccccc23)CC1)/c1cccnc1 | -1.95%
CCn1c(C(=O)N2CCCC(C(=O)NCCCc3ccccc3)C2)cc2sccc21 (centres unmarked) | -36.5%
CCC(=O)N(CCc1ccccc1)Cc1cc2cc3c(cc2[nH]c1=O)OCO3 | -2.97%
COc1cccc(/C=N/Nc2cc(C)nc(-c3ccccc3O)n2)c1O | -0.921%
CCOC(=O)c1sc2nc(C)nc(NCc3ccccc3)c2c1C | 9.35%
Cc1ccc(S(=O)(=O)N[C@H](C(=O)Oc2ccc3c(C(F)(F)F)cc(=O)oc3c2)c2ccccc2)cc1 | 4.99%
CCN(CCCNC(=O)CN1C(=O)COc2ccccc21)c1cccc(C)c1 | -11.3%
COC(=O)[C@H](Cc1ccccc1)NC(=O)[C@@H](N)CC(=O)O (H-Asp-Phe-OMe) | 2.13%
COc1ccc(C(=O)NNC(=O)Nc2ccc(Cl)cc2)cc1 | 11%
COc1ccc(OC)c(NC(=S)NCCC(c2ccccc2)c2ccccc2)c1 | 1.73%
COc1cccc(NC(=O)Cn2nnc(-c3ccccc3N)n2)c1 | -6.36%
CC1(C2CC(C(F)(F)F)n3nc(C(=O)O)cc3N2)CC1 (centres unmarked) | 22.9%
CN1C(=O)Cn2c1nc1ccccc12 | 7.66%
CCCCCC(=O)NC(=S)Nc1ccc(N2CCCCC2)c(Cl)c1 | 12%
CCOc1cc(/C=N/N=C2/NC(=O)C(CC(=O)O)S2)ccc1OCc1ccccc1Cl (centres unmarked) | 10%
Cc1nc(N)nc(Nc2ccc(Cl)cc2)c1Br | -7.99%
COc1ccc(-c2n[nH]c(C)c2-c2ccc(Cl)cc2)c(O)c1 | 9.37%
On1c(-c2ccccc2)nc2ccc(Cl)cc21 | -3.98%
O=C(O)c1nc(N2CCCCC2)ncc1Cl | 13.6%
CC(=O)Nc1ccc(S(=O)(=O)N2CCN(S(=O)(=O)c3ccc(NC(C)=O)cc3)CC2)cc1 | 16.2%

Compound | hERG current change (%, negative = inhibition) at 10uM
C=CCCCOc1ccc(C(=O)O)cc1 | 10.2%
CCCCn1nnnc1NCc1cccc(OC)c1OC | -4.34%
O=C(NCCC1=CCCCC1)C1CCN(C(=O)Cc2ccccc2)CC1 | -5.84%
Cc1ccc(C)c(S(=O)(=O)N2CCN(C(=O)c3cc(-c4cccs4)nn3-c3ccccc3)CC2)c1 | 5.54%
COc1cc(NC(=O)c2cc3nc(C4CC4)cc(C(F)(F)F)n3n2)c(OC)cc1Cl | 0.745%
CC(=O)Oc1ccc(-c2nc(-c3cccnc3)no2)cc1 | 14.2%
COC(=O)Cc1cc(=O)n2c(nc3ccccc32)[nH]1 | 9.25%
COc1ccc(OC)c(/C=N/NC(=O)c2cc3c(OC)cccc3[nH]2)c1 | -3.52%
COc1ccc(Nc2nc(N)nc(CSc3nncn3C)n2)cc1 | 20.1%
COCCNC(=S)N1CCC(C(=O)c2ccc(C)cc2)CC1 | -2.77%
Cc1ccc(C(NC(=O)N2CCOCC2)C(Cl)Cl)cc1F (centres unmarked) | 2.35%
CCCCNc1c([N+](=O)[O-])cc(C(=O)O)cc1[N+](=O)[O-] | -9.84%
O=C(Nc1cccnc1)c1sc2cccc(F)c2c1Cl | 1.13%
O=C(Nc1ccccc1)N1CCN(Cc2ccc(Cl)cc2)CC1 | -33.8%
Cc1ccc(S(=O)(=O)Oc2ccc(/C=C(/NC(=O)c3ccccc3)C(=O)NC(C)C(=O)O)cc2)cc1 (centres unmarked) | 9.72%
Cc1ccc(S(=O)(=O)N2CCCC2)cc1C(=O)Nc1ccc(-n2cnnn2)cc1 | -23.9%
COc1ccc(NC(=O)CSc2n[nH]c(N)n2)c([N+](=O)[O-])c1 | 22%
COc1ccc(C(CC(=O)O)NC(=O)C2CCCCC2)cc1 (centres unmarked) | 4.81%
O=C(CCSc1nc(-c2ccco2)cc(C(F)(F)F)n1)NCc1ccccn1 | -22.5%
CCN(CC)CCCNc1nc(C)cc(COC)c1C#N | -28.5%
CCOC(=O)c1c(-n2c(C)cc(C=C3C(=O)NC(=S)NC3=O)c2C)sc2c1CCCC2 | -5.55%
CCCCOC(=O)c1ccc(NS(=O)(=O)c2cc(-c3nnnn3CC)ccc2OC)cc1 | -12.4%

Compound | hERG current change (%, negative = inhibition) at 10uM
Clc1ccc(CN2CCc3c([nH]c4ccccc34)C2)cc1Cl | -28.2%
COc1cc(C(=O)Nc2nnc(CC(=O)NCc3ccccc3)s2)cc(OC)c1OC | -10.7%
O=C(c1ccc(COc2ccc(Cl)cc2)o1)N1N=C(C(F)F)CC1(O)C(F)F (centres unmarked) | 1.74%
CCOc1ccccc1NC=C1C(=O)OC(C)(C)OC1=O | 6.48%
C[N+](C)(C)CCCNC(=O)c1ccc(/C=N/O)nc1.[I-] | 13.7%
Cn1ncc(Br)c1C(=O)NC12CC3CC(CC(C3)C1)C2 | -6.48%
Cn1cnnc1Sc1ccc(CN2CCN(C3CCCC3)C(CCO)C2)o1 (centres unmarked) | 3.06%
Cc1ccc(-n2nnnc2SCC(=O)c2c(N)n(C3CC3)c(=O)[nH]c2=O)cc1C | -10.6%
COc1ccc(-c2cc3nc(C)c(CCC(=O)NC(C)CCc4ccco4)c(C)n3n2)c(OC)c1 (centres unmarked) | -62%
NC(=O)CC(NC(=O)c1ccccc1)c1ccc(NCCc2ccc(F)cc2)c([N+](=O)[O-])c1 (centres unmarked) | 16.2%
CCN(CC)c1ccc(/C=N/NC(=O)c2cccc(S(=O)(=O)Nc3ccccc3OC)c2)c(O)c1 | 12.1%
COc1ccc(C(=O)Nc2c3c(nn2-c2ccc([N+](=O)[O-])cc2)CS(=O)(=O)C3)cc1 | -9.85%
Cc1cc(OCC(=O)NC(Cc2ccc(Cl)cc2)C(=O)O)c2c(C)c(C)c(=O)oc2c1 (centres unmarked) | 4.07%
CN(Cc1c(C(=O)N/N=C/c2cccc(F)c2)nnn1-c1nonc1N)c1ccccc1 | 9.23%
COc1ccc(CN2CCN(S(=O)(=O)c3ccc(NC(C)=O)cc3)CC2)c(OC)c1OC.O=C(O)C(=O)O | -0.574%
COc1ccc(-c2nnn(Cc3nn[nH]n3)n2)cc1OC | 3.25%
CCOc1ccccc1NC(=O)Nc1cc(OC)ccc1OC | 16.5%
CCC(CC)c1nnc(NC(=O)c2ccc3ccccc3n2)s1 | -3.32%
CCC(C(=O)OCC(=O)Nc1ccc(Cl)c(S(=O)(=O)N(C)C)c1)c1ccccc1 (centres unmarked) | -6.93%
COc1ccc(NC(=O)N(Cc2ccc(C)cc2)Cc2ccccn2)c(OC)c1 | -19.8%
Cc1coc2cc3oc(=O)c4c(c3cc12)CCCC4 | 3.62%
CC(NC(=O)/C(C#N)=C/c1ccc(Cl)c([N+](=O)[O-])c1)c1ccccc1 (centres unmarked) | 4.7%

Compound | hERG current change (%, negative = inhibition) at 10uM
CCOC(=O)c1sc(=S)n(C)c1NC(=O)c1ccc(OC)cc1 | 17.4%
O=C(O)c1cccc(Oc2ncnc3sc4c(c23)CCCC4)c1 | 34.5%
Cc1ccc(S(=O)(=O)NC2=NCN(CC(=O)[O-])CN2)cc1.[Na+] | -7.49%
CC(C)Oc1ccc(C(=O)Nc2ccc3c(c2)n(C)c(=O)n3C)cc1 | -8.22%
O=C(Nc1sc2c(c1C(=O)O)CCCCC2)c1ccccc1 | 67.4%
CC1CN(S(=O)(=O)c2cccc(C(F)(F)F)c2)CC(C)O1 (centres unmarked) | 7.07%
N#Cc1ccccc1OCC(=O)NC(=O)NC1CCS(=O)(=O)C1 (centres unmarked) | 15.5%
CCOC(=O)COc1ccc(S(=O)(=O)NCc2ccco2)cc1 | -1.53%
COc1cccc(C(=O)NCC(=O)N/N=C(C)\C=C\c2ccccc2)c1 | -10%
Cc1cc(SCC(=O)c2ccccc2)nc(=O)[nH]1 | 17.6%
Cc1ccc(N2C(=O)NC(NC(=O)c3ccc(Cl)cc3)(C(F)(F)F)C2=O)cc1 (centres unmarked) | -31.5%
CCC(=O)Nc1ccc2c(c1)OCCO2 | -11.7%
COc1ccc(-n2c(/C=C3/C(=O)Nc4ccccc43)nc3ccccc3c2=O)cc1 | 15.9%
COC(=O)C1=C(c2ccc(OCc3ccccc3)cc2)C[C@@H]2CC[C@H]1N2C(=O)NCc1ccc(OC)c(OC)c1 | 7.11%
Cc1cc(N(CCO)CCO)ccc1N=Nc1cc(F)ccc1F | -5.6%
COC(=O)Cc1[nH]n(-c2nc3ccccc3s2)c(=O)c1C(C)=Nc1ccc(OC)cc1 | -1.89%
CC(C(=O)Nc1cccc([N+](=O)[O-])c1)N(c1ccccc1)S(C)(=O)=O (centres unmarked) | 10.5%
Cc1onc(-c2ccccc2)c1C(=O)Nc1ccc(S(=O)(=O)NC(C)(C)C)cc1 | 21.3%
Cc1cc(C)n(-c2ccc(C(=O)OCC(=O)Nc3cc(Cl)ccc3[N+](=O)[O-])cc2)n1 | -12.2%
CCOC(=O)N/N=C(\C)c1ccc(Oc2ncccn2)cc1 | 17.1%
